# In the supplement of paper PMC8728848:
# The list shows a part of the results.
# Experiments:
# Experiment in all cases: glycan array binding signal (z-score within array); higher = stronger binding
# Settings in all cases: glycan notation: IUPAC condensed, linker removed
# [1] = biological target: Gal(b1-4)GlcNAc(b1-3)Gal(b1-4)GlcNAc(b1-6)[Gal(b1-3)]GalNAc
# Outline: (§1)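 Columns mapping to the same glycan were averaged after glycan names were converted to IUPAC-condensed notation. The data come from 3228 arrays in the Consortium for Functional Glycomics database, limited to those with an available protein sequence. Binding is reported as a within-array Z-score averaged across arrays of one protein sequence and across linkers.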
# [2] = biological target: Gal(b1-4)GlcNAc(b1-3)Gal(b1-4)[Fuc(a1-3)]GlcNAc(b1-3)Gal(b1-4)[Fuc(a1-3)]GlcNAc
# Outline: as §1
# [3] = biological target: Gal(b1-4)GlcNAc(b1-3)GalNAc
# Outline: as §1
# [4] = biological target: Gal(b1-4)GlcNAc(b1-3)[Fuc(a1-3)GlcNAc(b1-6)]Gal(b1-4)Glc
# Outline: as §1
# [5] = biological target: Gal(b1-4)GlcNAc(b1-3)[Gal(b1-4)GlcNAc(b1-6)]Gal(b1-4)GlcNAc
# Outline: as §1
# [6] = biological target: Gal(b1-4)GlcNAc(b1-3)[GlcNAc(b1-6)]Gal(b1-4)GlcNAc
# Outline: as §1
# [7] = biological target: Gal(b1-4)GlcNAc(b1-6)Gal(b1-4)GlcNAc
# Outline: as §1
# [8] = biological target: Gal(b1-4)GlcNAc(b1-6)GalNAc
# Outline: as §1
# [9] = biological target: Gal(b1-4)GlcNAc(b1-6)[Gal(b1-3)]GalNAc
# Outline: as §1
# [10] = biological target: Gal(b1-4)GlcNAc(b1-6)[Gal(b1-4)GlcNAc(b1-3)]GalNAc
# Outline: as §1
# [11] = biological target: Gal(b1-4)GlcNAc6P
# Outline: as §1
# [12] = biological target: Gal(b1-6)Gal
# Outline: as §1
# [13] = biological target: Gal3S(b1-3)GalNAc
# Outline: as §1
# [14] = biological target: Gal3S(b1-3)GlcNAc
# Outline: as §1
# [15] = biological target: Gal3S(b1-3)[Fuc(a1-4)]GlcNAc
# Outline: as §1
# [16] = biological target: Gal3S(b1-4)Glc
# Outline: as §1
# [17] = biological target: Gal3S(b1-4)Glc6S
# Outline: as §1
# [18] = biological target: Gal3S(b1-4)GlcNAc
# Outline: as §1
# [19] = biological target: Gal3S(b1-4)[Fuc(a1-3)]Glc6S
# Outline: as §1
# [20] = biological target: Gal3S(b1-4)[Fuc(a1-3)]GlcNAc
# Outline: as §1
# [21] = biological target: Gal3S(b1-4)[Fuc(a1-3)]GlcNAc6S
# Outline: as §1
# [22] = biological target: Gal3S4S(b1-4)GlcNAc
# Outline: as §1
# [23] = biological target: Gal3S6S(b1-4)GlcNAc
# Outline: as §1
# [24] = biological target: Gal3S6S(b1-4)GlcNAc6S
# Outline: as §1
# [25] = biological target: Gal4S(b1-4)GlcNAc
# Outline: as §1
# [26] = biological target: Gal4S6S(b1-4)GlcNAc
# Outline: as §1
# [27] = biological target: Gal6P(b1-4)GlcNAc
# Outline: as §1
# [28] = biological target: Gal6S(b1-3)GlcNAc
# Outline: as §1
# [29] = biological target: Gal6S(b1-3)GlcNAc6S
# Outline: as §1
# [30] = biological target: Gal6S(b1-4)Glc
# Outline: as §1
# [31] = biological target: Gal6S(b1-4)Glc6S
# Outline: as §1
# [32] = biological target: Gal6S(b1-4)GlcNAc
# Outline: as §1
# [33] = biological target: Gal6S(b1-4)GlcNAc6S
# Outline: as §1
# [34] = biological target: GalNAc(a1-3)Gal
# Outline: as §1
# [35] = biological target: GalNAc(a1-3)GalNAc
# Outline: as §1
# [36] = biological target: GalNAc(a1-3)GalNAc(b1-3)Gal(a1-4)Gal(b1-4)Glc
# Outline: as §1
# [37] = biological target: GalNAc(a1-3)GalNAc(b1-3)Gal(a1-4)Gal(b1-4)GlcNAc
# Outline: as §1
binder,measurement,setting,value
Cohesin-marm-DC-ASGPR (protein) LDITSHHHHHHDDLDAVRIKVDTVNAKPGDTVRIPVRFSGIPSKGIANCDFVYSYDPNVLEIIEIEPGDIIVDPNPDKSFDTAVYPDRKIIVFLFAEDSGTGAYAITKDGVFATIVAKVKEGAPNGLSVIKFVEVGGFANNDLVEQKTQFFDGGVNVGDTTEPATPTTPVTTPTTTDDLDAASSKFQRDLVTLRTDFSNFTSNTLAEIQALTSQGSSLQETIASLKAEVEGHKQELQAGASELQEHNKQKAHLGRCPHTCVCPSSFVCVPVHSEILLRVQQLVQDLNKLSCQVAILKNNATTERTCCPINWVEHQGSCYWFSRSGKTWPEAERYCQLENTHLVVINSREEQNFVQAHLGSAYTWMGLSDPEGVWKWVDGTDYSSGFQNWKPGQPDDWQGHGLGGGEDCAHFHPDGRWNDDVCQRSYHWVCEAGLTQASQDSHAS,glycan array binding signal (z-score),[1],-0.258
same,glycan array binding signal (z-score),[2],-0.244
same,glycan array binding signal (z-score),[3],-0.275
same,glycan array binding signal (z-score),[4],-0.308
same,glycan array binding signal (z-score),[5],-0.287
same,glycan array binding signal (z-score),[6],-0.287
same,glycan array binding signal (z-score),[7],-0.29
same,glycan array binding signal (z-score),[8],2.24
same,glycan array binding signal (z-score),[9],-0.259
same,glycan array binding signal (z-score),[10],-0.293
same,glycan array binding signal (z-score),[11],-0.305
same,glycan array binding signal (z-score),[12],-0.234
same,glycan array binding signal (z-score),[13],-0.274
same,glycan array binding signal (z-score),[14],-0.269
same,glycan array binding signal (z-score),[15],-0.288
same,glycan array binding signal (z-score),[16],0.115
same,glycan array binding signal (z-score),[17],-0.141
same,glycan array binding signal (z-score),[18],-0.199
same,glycan array binding signal (z-score),[19],-0.3
same,glycan array binding signal (z-score),[20],-0.294
same,glycan array binding signal (z-score),[21],-0.015
same,glycan array binding signal (z-score),[22],-0.274
same,glycan array binding signal (z-score),[23],-0.25
same,glycan array binding signal (z-score),[24],-0.283
same,glycan array binding signal (z-score),[25],-0.3
same,glycan array binding signal (z-score),[26],-0.27
same,glycan array binding signal (z-score),[27],-0.307
same,glycan array binding signal (z-score),[28],-0.31
same,glycan array binding signal (z-score),[29],-0.246
same,glycan array binding signal (z-score),[30],-0.282
same,glycan array binding signal (z-score),[31],-0.255
same,glycan array binding signal (z-score),[32],-0.311
same,glycan array binding signal (z-score),[33],-0.295
same,glycan array binding signal (z-score),[34],4.28
same,glycan array binding signal (z-score),[35],-0.266
same,glycan array binding signal (z-score),[36],-0.239
same,glycan array binding signal (z-score),[37],-0.154
